PubChem BioAssay AID1347165 (National Center for Advancing Translational Sciences (NCATS), 2019)
About 5,700 (2.6%) of roughly 220,000 compounds were called active. This list was built around the results that the source calls inconclusive (neither active nor inactive); the mix of calls is not that of the screen. The call rests on the fitted dose curve; in most records, active means well fitted inhibition curve with a large enough effect; inconclusive means small, poorly fitted or top-dose-only effect; inactive means no such curve, though single readings can be large or run the other way. Potencies beside an inconclusive call are fits to weak or partial responses and may not hold up.

Molecular target: Lysine-specific demethylase 5B (Homo sapiens) (UniProt Q9UGL1)
Sequence of UniProt Q9UGL1 (Q9UGL1 whole entry, looked up): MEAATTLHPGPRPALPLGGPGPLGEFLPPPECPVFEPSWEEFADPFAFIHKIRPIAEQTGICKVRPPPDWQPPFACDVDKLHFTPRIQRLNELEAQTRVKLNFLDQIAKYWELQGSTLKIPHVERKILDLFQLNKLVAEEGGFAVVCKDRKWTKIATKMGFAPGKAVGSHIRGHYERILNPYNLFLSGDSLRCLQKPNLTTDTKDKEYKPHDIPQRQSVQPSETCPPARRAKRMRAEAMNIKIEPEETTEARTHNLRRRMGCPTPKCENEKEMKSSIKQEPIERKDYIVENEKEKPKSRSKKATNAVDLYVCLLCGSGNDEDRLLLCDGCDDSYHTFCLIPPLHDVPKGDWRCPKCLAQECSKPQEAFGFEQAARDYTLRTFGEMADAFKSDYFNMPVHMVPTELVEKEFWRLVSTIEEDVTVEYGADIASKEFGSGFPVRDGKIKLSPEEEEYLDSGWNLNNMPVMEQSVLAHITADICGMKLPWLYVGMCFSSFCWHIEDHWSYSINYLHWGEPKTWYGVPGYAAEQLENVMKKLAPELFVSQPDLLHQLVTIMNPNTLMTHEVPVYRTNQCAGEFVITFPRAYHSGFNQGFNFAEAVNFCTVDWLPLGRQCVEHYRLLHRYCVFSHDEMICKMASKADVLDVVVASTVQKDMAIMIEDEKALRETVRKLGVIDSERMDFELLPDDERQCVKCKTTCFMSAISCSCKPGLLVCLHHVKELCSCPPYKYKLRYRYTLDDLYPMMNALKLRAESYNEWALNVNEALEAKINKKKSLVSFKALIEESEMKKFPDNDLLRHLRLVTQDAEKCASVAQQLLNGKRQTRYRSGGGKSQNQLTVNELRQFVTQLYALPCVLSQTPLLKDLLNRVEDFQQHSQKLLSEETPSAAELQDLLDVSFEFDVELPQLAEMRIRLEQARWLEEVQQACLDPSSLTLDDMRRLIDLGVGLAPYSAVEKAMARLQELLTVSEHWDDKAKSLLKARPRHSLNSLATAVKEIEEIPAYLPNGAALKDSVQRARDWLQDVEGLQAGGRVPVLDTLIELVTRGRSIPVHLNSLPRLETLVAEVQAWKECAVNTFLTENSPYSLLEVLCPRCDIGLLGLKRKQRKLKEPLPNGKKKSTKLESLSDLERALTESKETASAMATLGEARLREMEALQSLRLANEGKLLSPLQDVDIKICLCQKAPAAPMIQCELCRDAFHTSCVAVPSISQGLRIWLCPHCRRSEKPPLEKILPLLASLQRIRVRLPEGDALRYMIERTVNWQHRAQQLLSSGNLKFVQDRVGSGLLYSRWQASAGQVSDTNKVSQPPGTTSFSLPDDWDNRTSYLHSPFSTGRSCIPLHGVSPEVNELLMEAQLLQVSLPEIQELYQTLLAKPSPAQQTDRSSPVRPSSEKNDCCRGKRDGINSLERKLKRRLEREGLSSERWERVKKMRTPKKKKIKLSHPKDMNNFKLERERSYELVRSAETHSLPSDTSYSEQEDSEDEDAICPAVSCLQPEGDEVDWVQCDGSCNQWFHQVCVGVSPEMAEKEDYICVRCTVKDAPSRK
Test: Primary screen for KDM5B Histone Demethylases FDH-coupled qHTS; further: nearly all actives have a fitted effect of over 70% in size; on activity change, negative = inhibition: 0% is about no effect
Details: FDH-coupled NADH fluorescence (FDH is formaldehyde dehydrogenase); activity change, negative = inhibition: at 57.7 µM (top of the series) unless noted
Description: Assay Submitter (PI): Qin Yan, Ph.D. (Yale University) and Xiaodong Cheng, Ph.D. (MD Anderson) This project was funded as part of the NCI NEXT Program and Chemical Biology Consortium (CBC) The histone demethylases, KDM5A and KDM5B catalyze the demethylation of lysine 4 on histone H3 (H3K4me3/2). They are overexpressed in a variety of cancers and have been implicated in cancer cell growth, metastasis, drug resistance, and tumor growth. KDM5A is amplified and overexpressed in breast and gastric cancer; and is translocated in leukemia. While KDM5B is highly expressed in human mammary tumors and breast cancer cell lines, but not in normal adult breast tissue. Moreover, knockdown of KDM5B leads to upregulation of tumor suppressor genes, including BRCA1. The goal of this project is to employ qHTS to identify selective small molecule inhibitors of KDM5A/B demethylase activity to better understand the role of KDM5 in cancer and to develop novel therapies. We employed an FDH-coupled assay previously reported by Sakurai et al. to monitor in vitro KDM5 demethylase activity. Compounds showing dose response inhibition are re-acquired, validated, and tested for non-specific interference with the formaldehyde dehydrogenase (FDH) counterscreen. True inhibitors are validated using an AlphaLisa secondary screen, which employs an H3K4(me2-1)-specific antibody to monitor demethylation of a biotin-tagged H3K4(me3) peptide substrate. Inhibitors are profiled against KDM4A and KDM6A AlphaLisa counterscreens to determine level of demethylase specificity; and against the TruHits counterscreen to eliminate non-specific inhibitory activity on the AlphaLISA detection method. Selective inhibitors identified from the primary and secondary screening are tested in cells using immunofluorescence to monitor global H3K4 tri-methylation as a measure of KDM5A/B inhibition. Early Translation Branch (ETB) National Center for Advancing Translational Sciences (NCATS), Rockville, MD National Institute of Health (NIH), Bethesda, Maryland [1] Sakurai, M et al. A miniaturized screen for inhibitors of Jumonji histone demethylases. Mol Biosyst. 2010 Feb;6(2):357-64. doi: 10.1039/b912993f. Epub 2009 Oct 8.
Materials: 1536-well Black, solid bottom, medium binding assay plate is purchased from Greiner Bio-one. The enzymes (KDM5B) and substrate (H3K4me3/2) are provided by the principal investigators. The buffer for this assay is composed of 50mM HEPES at pH 7.5 with 0.01% Tween-20. FDH coupled Demethylase qHTS protocol: Three microliter enzyme mix (buffer + 200nM KDM5BDeltaAP final concentration) is dispensed into the assay plate using the BioRAPTR Flying Reagent Dispenser (FRD; […]). Compound (at various final concentration) and control solution is pin transferred to the assay plate using the Kalypsys 1536-pin tool apparatus. The assay plate is incubated for 10 min at room temperature followed by addition of 1uL substrate mix (buffer + 100uM ascorbic acid, 50uM ferrous ammonium sulfate, 12.5uM H3K4Me3, 25uM a-ketoglutarate, 0.25 mM NAD+, 0.25 U/mL formaldehyde dehydrogenase using the FRD yielding a total reaction volume of 4 uL. Initial fluorescence (Read1) is detected using the PerkinElmer ViewLux plate reader equipped with 340 nm excitation and 450 nm emission filters. The final fluorescence (Read2) signal is obtained after 30 min of room temperature incubation. Delta RFU is calculated (Read2 - Read1) and is used to generated dose response curves.
Potency means the concentration at half of the fitted maximal effect; tags describe the fitted curve by direction and shape.

Compound	Potency	activity change, negative = inhibition
Cc1ccc(Cn2c(C3CCN(C(=O)c4cc(Cl)ccc4F)CC3)n[nH]c2=O)cc1	inactive	–
Cn1nccc1C(=O)N1CCCN(CCc2ccccc2)c2ccccc21	inconclusive: 35.5 µM [inhibitor, partial curve, poor fit]	–
O=C(COc1ncnc2scc(-c3ccc(F)cc3)c12)Nc1ccc(F)cc1	inactive	–
CC(C)c1nc2c(c(-c3ccc(O)cc3)n1)CCN(CC1CCCCC1)CC2	inconclusive: 31.6 µM [inhibitor, single point]	–
CCOC(=O)c1c(N)n(-c2cccc(OC)c2)c2nc3ccccc3nc12	inconclusive: 2.51 µM [inhibitor, full curve, poor fit]	–
COCc1ccc(C(=O)NCC(C)c2ccccc2)cc1 (stereo not drawn)	inactive	–
CS(=O)(=O)N1CCC(c2nnc3n2C(C(=O)O)CC3)CC1 (stereo not drawn)	inconclusive: 100 µM [inhibitor, partial curve, poor fit]	–
CCCC(=O)Nc1ccc2oc(-c3ccccc3C)nc2c1	inconclusive: 20 µM [inhibitor, partial curve, poor fit]	–
CCn1c(=O)n(CC)c2cc(N3CCCCC3)c(NC(=O)Nc3cc(C)cc(C)c3)cc21	inconclusive: 31.6 µM [inhibitor, partial curve, poor fit]	–
Cc1ccc(-c2nc(C(=O)NCCCN(C)C)cc3c2[nH]c2ccccc23)cc1	inconclusive: 25.1 µM [inhibitor, partial curve, poor fit]	–
COc1ccc2nc(CO[C@H]3CN(Cc4cccnc4)C[C@H]3F)[nH]c2c1	inactive	–
Cc1ccc2cc(CCC(=O)N3CCOCC3)c(=O)[nH]c2c1	inconclusive: 25.1 µM [inhibitor, single point]	–
Cc1sc(-c2cccc(O)c2)nc1-c1ccccc1	inactive	–
Cc1cccc(-c2noc(CN(C(=O)COc3ccc(Br)cc3C)C(C)C)n2)c1	–	inconclusive: -39.2% [inhibitor]
CNC(=O)N1CCC(C2CCN(C3CCSCC3)C2)CC1 (stereo not drawn)	inconclusive: 20 µM [inhibitor, partial curve]	–
O=C(CCCCCCCC(=O)Nc1ccc(C(=O)c2ccccc2)cc1)Nc1ccc(C(=O)c2ccccc2)cc1	inactive	–
CCCN(CC)c1ccc(/C=N/NC(=S)Nc2cccc(C)c2)cc1	inconclusive: 8.91 µM [inhibitor, full curve, poor fit]	–
Cc1ccc2c(CN(C)CCOc3cccc(Cl)c3)cc(=O)oc2c1	inactive	–
Cc1cccc(N2CCN(C(=O)NCc3noc4ccccc34)CC2)c1C	inactive	–
Cc1cc(C)c(CSc2nnc(C)n3c2cc2occc23)c(C)c1	inconclusive: 25.1 µM [inhibitor, partial curve, poor fit]	–
Cc1ccn2c(Nc3ccccc3C)c(-c3ccccn3)nc2c1	inconclusive: 39.8 µM [inhibitor, partial curve, poor fit]	–
O=C(NC1CCCCC1)c1cc(Nc2cccc(C(F)(F)F)c2)nc2ccccc12	inconclusive: 12.6 µM [inhibitor, partial curve, poor fit]	–

Compound	Potency	activity change, negative = inhibition
COc1cc(NC(=O)c2noc3c2CSc2ccccc2-3)cc(OC)c1OC	inconclusive: 25.1 µM [inhibitor, partial curve, poor fit]	–
COc1ccc(NC(=O)c2oc3ccccc3c2NC(=O)c2cccc(F)c2)c(OC)c1	inconclusive: 0.398 µM [inhibitor, full curve, poor fit]	–
Cn1nnnc1C1CCCN(C(=O)c2cccc(F)c2)C1 (stereo not drawn)	inconclusive: 20 µM [inhibitor, single point]	–
Clc1ccccc1C1(c2ccnc(C3CC3)n2)CCNCC1	inactive	–
CN(C)c1ccc(-c2noc(C3CCN(C(=O)Nc4ccc(Cl)cc4)CC3)n2)cc1	inconclusive: 39.8 µM [inhibitor, single point]	–
O=C(C1=C(O)C(=O)N(CCN2CCOCC2)C1c1cccs1)c1cc2ccccc2o1 (stereo not drawn)	inconclusive: 20 µM [inhibitor, single point]	–
O=C(CSc1nc2ccccc2o1)Nc1ccccc1Oc1ccccc1	inactive	–
Cc1cc(C)c(CNC(=O)c2cc(-c3ccccc3O)cc3c2OCCN3C)c(=O)[nH]1	active: 35.5 µM	–
COc1cccc(C(=O)/C(=C/c2ccccn2)c2nc3ccccc3o2)c1	inconclusive: 20 µM [inhibitor, partial curve, poor fit]	–
Cc1c(Cl)cccc1-c1ccc(CNc2ccc3[nH]c(=O)[nH]c3c2)o1	inconclusive: 11.2 µM [inhibitor, partial curve, poor fit]	–
COc1ccc(OC)c(/C=N/Nc2cc(C)nc(N3CCOCC3)n2)c1	inconclusive: 35.5 µM [inhibitor, single point]	–
Clc1cccc(CN2CC[C@H](c3nc4ccccc4s3)C2)c1	inconclusive: 39.8 µM [inhibitor, single point]	–
CCCCCNC(=O)c1noc(-c2ccccc2F)n1	inconclusive: 28.2 µM [inhibitor, partial curve]	–
COc1ccc2c(c1)CCN=C2C[C@H]1CN(C(=O)c2cccs2)CC[C@H]1CC(=O)O	inconclusive: 35.5 µM [inhibitor, partial curve, poor fit]	–
Cc1noc(C)c1Cc1ccc(C(=O)N2CC(N(Cc3cccnc3)CC(C)C)C2)o1	inactive	–
CCc1ccccc1NC(=O)CNC(=O)c1cc(C2CC2)nc2c1cnn2C(C)C	inconclusive: 39.8 µM [inhibitor, single point]	–
Clc1cccc(N2CCN(c3nc4ccccc4n4cnnc34)CC2)c1	inconclusive: 35.5 µM [inhibitor, single point]	–
C=CCNc1nc(-c2ccc3c(c2)OCCCO3)cs1	inactive	–
CCc1ccc(NCc2cc(=O)n3[nH]c(-c4ccccc4)nc3n2)cc1	inconclusive: 17.8 µM [inhibitor, partial curve, poor fit]	–
Cc1[nH]c2ccccc2c1C(=O)C(C#N)C(=O)C1CC=CCC1 (stereo not drawn)	inconclusive: 25.1 µM [inhibitor, single point]	–
O=C(Cn1ncc2ccccc2c1=O)NC1CCCc2c1[nH]c1ccccc21 (stereo not drawn)	inconclusive: 28.2 µM [inhibitor, single point]	–
